# Source: paper PMC4336329 (PLoS ONE, 2015)
# The campaign covered roughly 310,000 compounds. About 14,000 (4.5%) showed an effect of 50% or more. The effect is printed as a negative number. Some of the results follow. Where a SMILES comes first, the peptide text is derived from it. [ ]: non-standard residue; d: D form. NMeY = CN[C@@H](Cc1ccc(O)cc1)C(=O)O; NMeF = CN[C@@H](Cc1ccccc1)C(=O)O; 2Abz = Nc1ccccc1C(=O)O
# Biological target: human ether-à-go-go-related gene (hERG) potassium channel (human, UniProt Q12809)
# Test: primary screen, population patch clamp on CHO cells stably expressing hERG
# 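Note: peak tail current of the secondary pulse compared with the same well before compound.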
# Chain of human ether-à-go-go-related gene (hERG) potassium channel (Q12809 whole entry, looked up): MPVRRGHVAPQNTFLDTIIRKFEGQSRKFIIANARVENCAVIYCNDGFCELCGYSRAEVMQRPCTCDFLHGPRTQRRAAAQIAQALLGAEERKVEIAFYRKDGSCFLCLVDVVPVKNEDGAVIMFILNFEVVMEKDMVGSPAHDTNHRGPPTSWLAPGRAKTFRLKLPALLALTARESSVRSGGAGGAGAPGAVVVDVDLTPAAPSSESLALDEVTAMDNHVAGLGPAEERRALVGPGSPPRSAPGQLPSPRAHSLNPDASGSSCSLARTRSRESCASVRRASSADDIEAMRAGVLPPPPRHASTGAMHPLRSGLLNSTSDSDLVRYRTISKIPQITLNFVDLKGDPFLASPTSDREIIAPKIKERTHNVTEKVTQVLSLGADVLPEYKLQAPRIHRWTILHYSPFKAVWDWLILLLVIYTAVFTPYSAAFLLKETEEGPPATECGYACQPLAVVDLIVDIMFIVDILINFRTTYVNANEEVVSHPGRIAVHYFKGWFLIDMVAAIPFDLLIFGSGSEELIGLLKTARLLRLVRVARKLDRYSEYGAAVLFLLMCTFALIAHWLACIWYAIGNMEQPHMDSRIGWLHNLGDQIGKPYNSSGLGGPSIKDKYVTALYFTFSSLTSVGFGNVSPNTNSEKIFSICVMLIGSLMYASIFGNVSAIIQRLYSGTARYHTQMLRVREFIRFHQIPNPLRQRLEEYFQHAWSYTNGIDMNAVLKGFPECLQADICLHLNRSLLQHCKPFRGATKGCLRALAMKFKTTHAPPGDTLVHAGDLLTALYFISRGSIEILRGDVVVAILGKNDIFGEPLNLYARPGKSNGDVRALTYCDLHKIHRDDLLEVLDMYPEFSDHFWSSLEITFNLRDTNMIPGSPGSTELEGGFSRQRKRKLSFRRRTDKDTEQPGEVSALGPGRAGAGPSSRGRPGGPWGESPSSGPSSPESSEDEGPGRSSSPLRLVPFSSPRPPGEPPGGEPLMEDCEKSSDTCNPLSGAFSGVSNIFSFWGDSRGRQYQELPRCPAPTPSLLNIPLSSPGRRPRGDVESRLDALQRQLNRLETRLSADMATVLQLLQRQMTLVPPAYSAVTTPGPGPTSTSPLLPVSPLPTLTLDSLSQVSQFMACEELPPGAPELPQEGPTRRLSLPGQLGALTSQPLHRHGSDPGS
row,SMILES,"hERG current change (%, negative = inhibition) at 10uM [%]"
1,COc1ccc(NC(=O)Nc2nnc(-c3cccs3)s2)cc1,-5.26
2,Cc1ccc2sc(C)[n+](CCC(C)S(=O)(=O)[O-])c2c1 (stereo not drawn),3.57
3,CN1C(=O)C(=Cc2ccc(-c3cccc(Cl)c3)o2)C(=O)N(C)C1=O,10.2
4,CCC(C(=O)Nc1ccc2c(c1)OCCO2)n1nnc2ccccc2c1=O (stereo not drawn),7.68
5,Cn1c(CNC(=O)CNC(=O)c2ccccc2)cc(=O)n(C)c1=O,13.3
6,CCN1C(c2ccccc2)C(C)C(=O)C(C)C1c1ccccc1 (stereo not drawn),-3.9
7,COc1ccc(N(C(=O)c2ccccc2OC)C2C=CS(=O)(=O)C2)c(OC)c1 (stereo not drawn),2.26
8,CC(C)C(C(=O)NC1CCCCC1)N(CC1CCCO1)C(=O)CNS(=O)(=O)c1ccc(F)cc1 (stereo not drawn),-7.17
9,Cc1ccccc1N1C(=O)CN(Cc2sccc2C)C1=S,-2.01
10,CCOC(=O)c1cnc(-c2ccc(C(F)(F)F)cn2)[nH]c1=O,5.62
11,COc1ccc(C(=O)OC(C)C(=O)NC2CCCc3ccccc32)cc1OC (stereo not drawn),-13.8
12,Cc1cccc(NC(=O)NCc2cccnc2)c1C,-35.9
13,CC(C)c1ccc(NC2CCCN(C(=O)c3ccncc3)C2)cc1 (stereo not drawn),-4.2
14,COc1ccc(-c2sc3ccc(OC)cc3c2C#CCCO)cc1,17
15,CN(C)S(=O)(=O)N1CCN(S(=O)(=O)c2ccc3ccccc3c2)CC1,21.4
16,O=c1[nH]cnc(O)c1C(c1ccc(F)cc1)c1c(O)nc[nH]c1=O,18.5
17,O=C1CN(C(=O)COc2ccc(F)cc2Br)c2ccccc2N1,-29.9
18,O=C1C(C=NCCCN2CCOCC2)=C(O)c2ccccc21,8.08
19,Cc1cccc(C(=O)OCC(=O)Nc2c(C)n(C)n(-c3ccccc3)c2=O)c1,-13
20,CCc1nc2ccc(C(=O)N3CCN(c4cccc(C(F)(F)F)c4)CC3)cc2nc1CC,-13.5
21,CCc1cc2ccc(OC)cc2nc1SCC(=O)NNC(C)=O,16.4
22,CCCCCCc1cc2cc(-c3nnc(-c4ccccc4OC)o3)c(=O)oc2cc1O,1.5
23,COc1ccc(C(=O)NCC(O)COc2ccc(C(C)(C)C)cc2)cc1[N+](=O)[O-] (stereo not drawn),7.66
24,Cc1c(C(=O)Oc2cc(N)n(S(C)(=O)=O)n2)cccc1[N+](=O)[O-],-4.5
25,CCN(C(=O)COC(=O)Cc1ccccc1)c1c(N)n(Cc2ccccc2)c(=O)[nH]c1=O,12.2
26,O=C(CCc1ccccc1)N1CCN(c2ccccc2F)CC1,15.9
27,O=C(CCS(=O)(=O)c1ccc(F)cc1)Nc1nnc(-c2cccs2)o1,14.7

row,SMILES,"hERG current change (%, negative = inhibition) at 10uM [%]"
1,Cc1ccc(-c2cc(C(=O)NCCCn3ccnc3)c3cc(Br)ccc3n2)o1,-73.8
2,COc1ccc(N(CC(=O)NCc2ccncc2)S(=O)(=O)c2ccccc2[N+](=O)[O-])c(OC)c1,-36.4
3,CCOc1cc(-c2ccccc2)nc(N)n1,-6.9
4,O=C(Nc1ccc2c(c1)OCCO2)N1CCN(c2ccccc2)CC1,-19.1
5,N#CC1=C2SCC(O)(c3ccccc3)N2C(=O)CC1c1ccccc1 (stereo not drawn),-20.4
6,CCCC(=O)N(CC(=O)Nc1sc(C)c(C)c1C(N)=O)Cc1ccccc1,-45.4
7,COc1ccc(/C=C(\NC(=O)c2ccccc2)C(=O)NCC2CCCO2)cc1 (stereo not drawn),2.12
8,Cn1c(=O)c2c(ncn2Cc2cccc(Cl)c2)n(C)c1=O,-4.72
9,Cc1c(N/C=C/C(=O)C(F)(F)F)c(=O)n(-c2ccccc2)n1C,20.2
10,Cc1nn(-c2ccccc2)c(C)c1NC(=O)COc1ccc2ccccc2c1,-19.9
11,Fc1ccc(CN2CCCN(Cc3nc(-c4ccc5c(c4)OCO5)no3)CC2)cc1,-62.2
12,Cc1ccccc1C#N,16.7
13,Cc1cccc(OCc2nnc(N)s2)c1,-8.23
14,CC1CCN(c2c(NCC3CCC(C(=O)NCCc4ccc(Cl)cc4)CC3)c(=O)c2=O)CC1 (stereo not drawn),-3.81
15,O=c1cc(CN2CCN(c3ccccc3O)CC2)nc2sccn12,9.48
16,CC(NC(=O)c1cccs1)c1ccccc1 (stereo not drawn),9.66
17,COc1cccc(CNC(=O)CS(=O)(=O)Cc2nc(-c3ccc(C)cc3)oc2C)c1OC,-4.74
18,CC1CCC(NC(=O)C(=O)Nc2ccc3c(c2)OCO3)CC1 (stereo not drawn),26.9
19,CCOC(=O)[C@H]1[C@H]2COc3ccccc3[C@@H]2N2C(=O)c3ccc(Cl)cc3NC(=O)[C@@]12C,-12.3
20,Cc1ccc(C(=O)NNC(=O)C2CCN(c3nc(C)cc(C)n3)CC2)cc1,4.83
21,Cc1ccccc1OCC(=O)Nc1cc(S(=O)(=O)N2CCCCC2)ccc1N1CCN(C)CC1,-28.3
22,CC(C)C[C@@H]1NC(=O)[C@H](Cc2ccccc2)N(C)C(=O)[C@H](C)NC(=O)c2ccccc2NC(=O)[C@H](Cc2ccc(O)cc2)N(C)C1=O (cyclo([2Abz]A[NMeF]L[NMeY])),-6.02
23,Cc1ccc(S(=O)(=O)N2CCCOC2CNC(=O)C(=O)NCc2ccc3c(c2)OCO3)cc1 (stereo not drawn),-13.4
24,Cc1ccc(N2C(=O)/C(=C/c3ccc(CN(CCC#N)S(C)(=O)=O)o3)C(=O)NC2=S)cc1C,19.9
25,COc1ccc(C(=O)NC2(C(F)(F)F)N=C3SCCN3C2=O)cc1 (stereo not drawn),-5.25
26,Cc1cccc(C)c1NC(=O)CN(C)CC(=O)Nc1ccc(C#N)c(Cl)c1,-30.1
27,CC1CCCN(c2ccc(C(=O)OCn3nnc4ccccc4c3=O)cc2[N+](=O)[O-])C1 (stereo not drawn),7.12
